Test results reported in patent US20050070480A1, “Peptide arginals and methods for treating disseminated intravascular coagulation” (priority 2001, published 2005).

Test system: endotoxin-treated rats
Assay: Rat model for disseminated intravascular coagulation (fibrin deposition, platelet count, FDP)
[1] = endotoxin 10 mg/kg rats, 50 NIH U/kg/h i.v. bolus + infusion, 4 h
[2] = endotoxin 10 mg/kg rats, 0.25 mg/kg/h i.v. bolus + infusion, 4 h, microthrombi index change vs saline group

With `CN[C@H](Cc1ccccc1)C(=O)N1CCC[C@H]1C(=O)N[C@H](C=O)CCCN=C(N)N` [C, D-MePhe-Pro-Arg-H, reference compound] the “125I-fibrin deposition Kidney” value (rat, in vivo) was 33%, the “125I-fibrin deposition Liver” value (rat, in vivo) was 30% and the “Change in FDP” value (rat, in vivo) was 1.94. For the same compound, the “Change in platelet Count” value (rat, in vivo) was 52%.
heparin was tested, and the “125I-fibrin deposition Kidney” value [1] was 28%, the “125I-fibrin deposition Liver” value [1] was 22% and the “Change in FDP” value [1] was 2.37. For the same compound, the “Change in platelet Count” value [1] was 43%.
`CCOC(=O)N[C@H](CC1CCCCCC1)C(=O)N1CCC[C@H]1C(=O)N[C@H](C=O)CCCNC(=N)N` [Compound 1, ethoxycarbonyl-D-cycloheptylalanyl-L-prolyl-L-arginine aldehyde] was tested, and the “Change in platelet Count” value (endotoxin 10 mg/kg rats, 0.25 mg/kg/h i.v. bolus + infusion, 4 h) was 48%, the “Change in FDP” value (endotoxin 10 mg/kg rats, 0.25 mg/kg/h i.v. bolus + infusion, 4 h, Aggristin precipitation assay) was 1.66 and the “125I-fibrin deposition Kidney” value [2] was 26%. The “125I-fibrin deposition Liver” value [2] was 13%.
